# Reference: PMC4242493
# The other results are listed elsewhere or left out. The list includes weakly bound sequences.
# Target: MaxL homodimer (UniProt P61244)
# Experiment: universal protein-binding microarray (PBM)
# Conditions: PBS-based mixture, 10 nM His-tagged protein dimer, 2% milk, 200 ng/uL BSA, 50 ng/uL salmon testes DNA, 0.02% TX-100; detection with Alexa 488 anti-His …; high values mean tight binding; most listed sequences are background and not binding sites; double strand, one strand shown
# UniProt P61244, sequence (P61244 whole entry): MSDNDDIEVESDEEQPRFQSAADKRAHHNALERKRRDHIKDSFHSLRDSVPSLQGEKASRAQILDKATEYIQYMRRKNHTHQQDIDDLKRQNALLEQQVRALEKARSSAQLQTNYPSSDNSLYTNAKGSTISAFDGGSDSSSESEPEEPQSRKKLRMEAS
row,Sequence,binding signal (normalized occupancy)
1,TCCCCGAA,0.0707
2,GGGCAGAC,0.0732
3,ACCGAGGG,0.0715
4,AGCGACCC,0.0713
5,CACTCCGA,0.0727
6,CATTGTCG,0.0803
7,AGGCACCC,0.0745
8,GAGCTGCC,0.0712
9,CCCCGCTC,0.0723
10,TCTACGAA,0.0762
11,GATCCCAA,0.0778
12,CCAATCGA,0.0761
13,ACACTCCG,0.0756
14,ACATCGGC,0.068
15,ACACATGC,0.137
16,CATGGCCG,0.085
17,CCGGTCAG,0.0671
18,GATTTAGC,0.0713
19,AATGTGTC,0.095
20,CATTTATA,0.0837
21,ATATAGTC,0.084
22,AATTAAGC,0.0756
23,CATTTACC,0.0792
24,GTTGGCAA,0.075
25,AGAGGTAA,0.0724

row,Sequence,binding signal (normalized occupancy)
1,CCCTTTCA,0.0772
2,CCACCGTC,0.0749
3,CATCGTCC,0.0759
4,TGAGGAAA,0.0759
5,AGGGAATG,0.0778
6,ATGGAGCG,0.0803
7,ACGTTAAA,0.0795
8,GAATAAGA,0.0794
9,ATAAATGC,0.0834
10,ACATATAA,0.0827
11,GATCTTAC,0.078
12,CACGAGCA,0.0904
13,CCCTCCCC,0.0813
14,CCCAGGCC,0.0716
15,ACAAAGTA,0.074
16,GACTCTCA,0.0765
17,TCTATAAA,0.0807
18,AGACCTAG,0.0713
19,GCAATGCA,0.0792
20,CTCGCGCA,0.0761
21,ATGTGATG,0.0968
22,CCGTACCG,0.0712
23,GCTGGTGA,0.0746
24,ACGACTCG,0.0696
25,AAGCCTCT,0.0759

row,Sequence,binding signal (normalized occupancy)
1,AAACGGCT,0.0646
2,AGCAGTAT,0.0755
3,AAGGAGAC,0.0783
4,GCCGGTAA,0.072
5,CTCGAACC,0.0717
6,CGCTTTCA,0.076
7,GCGGCTCC,0.0693
8,CAGCATAC,0.0829
9,GCCTAGGC,0.0685
10,GCGTCACC,0.0737
11,AGAGGAGA,0.0731
12,ACACGTAA,0.082
13,CTATAATC,0.0798
14,GTTGGCGA,0.0684
15,ATCCACGG,0.0796
16,CAGATAGG,0.0755
17,AGTATCTG,0.0718
18,GTACGAAC,0.0712
19,CTAATCAA,0.0703
20,CTGAGTTA,0.075
21,ATCCAGTA,0.0781
22,CGATACAA,0.0766
23,ACTCAAAC,0.0711
24,GGTGGTAA,0.0793
25,CATCGTAA,0.072

row,Sequence,binding signal (normalized occupancy)
1,ATGATCAT,0.0825
2,CATTCCGG,0.0746
3,GTTTTCGA,0.0726
4,CCCTCGCC,0.0752
5,ATTTGGGG,0.0826
6,AGTCCAGC,0.0715
7,GTTAACCA,0.0793
8,CATAGCAA,0.0774
9,CTACCGCA,0.0796
10,AGCTTTAG,0.0725
11,GCCCGGCA,0.0681
12,CGAGACCA,0.0884
13,ATCACCGA,0.0729
14,GAAAGTCA,0.0794
15,GGGCCAAA,0.0712
16,GTCTTAGA,0.0791
17,GAAATAGA,0.0803
18,GCATCCTA,0.0746
19,AGCAAGGC,0.0744
20,CACAGGCA,0.0832
21,ACATCCAA,0.07
22,AGTCCCCC,0.0801
23,GGACCGAC,0.0727
24,CTCCTTCA,0.0734
25,ATTCCGTC,0.0768

row,Sequence,binding signal (normalized occupancy)
1,ACCCAAAG,0.072
2,AACGCCAC,0.0741
3,GTGCTCAA,0.0771
4,ACGATATA,0.0854
5,CGACACGC,0.09
6,GCCACACC,0.085
7,ACAGTGTA,0.0763
8,GCACTCTA,0.0786
9,TCCTCCCA,0.077
10,ATCCCGTG,0.0875
11,CCCGCTCA,0.0743
12,ATTCCACC,0.082
13,GCTAGACA,0.0691
14,AAAAGACG,0.0726
15,AATGTCGG,0.0774
16,CAATAATC,0.0771
17,CTAACAGA,0.0747
18,GAGCGTAC,0.0725
19,GTTACTGA,0.0729
20,TTCTAGAA,0.0693
21,AACCTTTC,0.0742
22,CTGGCAGC,0.0699
23,AAGAAGGA,0.0794
24,CATGTGTC,0.125
25,CTTAGAGC,0.0674

row,Sequence,binding signal (normalized occupancy)
1,AGTTACGG,0.0714
2,AAATGAGA,0.0767
3,AGGATGCA,0.0762
4,GGGGGCTA,0.0764
5,AAACCCCA,0.0788
6,CCGGCCTA,0.067
7,CAAACGTC,0.0739
8,CAGGGACC,0.0713
9,ATATGAGG,0.0865
10,GACATAAC,0.0839
11,CATCCGCA,0.077
12,CCTCTTGA,0.0745
13,ATTCGGAC,0.0776
14,AACCCCGT,0.0803
15,CCTGGTCC,0.0714
16,ATAACCAC,0.0843
17,AATGGCTC,0.0777
18,AGCCGTTG,0.0696
19,GCCTGCGC,0.0702
20,AGTTATAG,0.0847
21,ATTGAGAA,0.0755
22,CCCCGGGC,0.0667
23,ACGCCTTC,0.0729
24,GGTTATGA,0.0822
25,CCGATGCC,0.0718

row,Sequence,binding signal (normalized occupancy)
1,AATGCCCA,0.0798
2,GCCATCCC,0.0771
3,CCCGAAAG,0.074
4,AACTTGAT,0.081
5,CCCCCACA,0.0839
6,AATGTCTG,0.0745
7,CTGAAGAA,0.0692
8,CTGTGCGC,0.0728
9,AATTGCGA,0.0732
10,CGGAGCTA,0.0735
11,ATTACGAG,0.0804
12,CTGGAAGA,0.0732
13,ATTAAAGA,0.0773
14,CACCACCC,0.087
15,ATTAGAAT,0.0789
16,AGGTTTGC,0.0755
17,GTCTCGCA,0.073
18,GGGCTTAA,0.0695
19,CCCACTGA,0.0716
20,AAACGTGT,0.1
21,TTAGTCAA,0.071
22,CATGATCC,0.0903
23,ACCTTAAC,0.0771
24,AGGCTAAA,0.071
25,GCCTCAGA,0.0726

row,Sequence,binding signal (normalized occupancy)
1,TCCGTTCA,0.0689
2,GGGCCTAC,0.0673
3,AACAATCG,0.0715
4,AGTTAAGA,0.0714
5,AGCGACAA,0.0793
6,AAGCCACG,0.0871
7,ATCGATAG,0.0826
8,GCTCAGGA,0.07
9,ATATATAA,0.0904
10,GTACATGA,0.0843
11,AGACGAAC,0.0726
12,AAATGGTT,0.072
13,AATTCGGT,0.0697
14,GCTTCTGA,0.073
15,AGTCGCGA,0.0755
16,AAATAGTT,0.0744
17,ATAGCAGG,0.0727
18,AGGGTAAA,0.0802
19,ATCCAACA,0.0785
20,ACAAGCAT,0.0808
21,GAATTCCA,0.0755
22,GGAAATTA,0.0817
23,CTTGGGGC,0.0692
24,CCTAGTCC,0.0726
25,GACGTATA,0.0778

row,Sequence,binding signal (normalized occupancy)
1,ACCTGACA,0.0789
2,ATCCTGTC,0.0749
3,AACTTATC,0.075
4,CTGAAGAC,0.0709
5,ACCCCCCA,0.0865
6,AGATTCGG,0.0722
7,AAGCCGCG,0.0688
8,CTGCCTAC,0.072
9,AGCACGGA,0.0813
10,AATCCAAC,0.077
11,GAACGCTA,0.0771
12,CATGAGAG,0.0941
13,CTAACGCA,0.0719
14,ATTGTACC,0.08
15,CGGTTGGA,0.0701
16,AAGTCAAG,0.0765
17,GTTCCTAA,0.0746
18,GGTTGAAC,0.0742
19,CTCGGGTA,0.0741
20,GATTTGTA,0.0761
21,AAGGTAAC,0.0807
22,CAACTAGC,0.0711
23,CTGTTTGA,0.0796
24,AGGATGTA,0.0795
25,CTATTCGC,0.0758

row,Sequence,binding signal (normalized occupancy)
1,GCAAGCAA,0.0714
2,CCAGACCG,0.0691
3,AATCGAAG,0.075
4,CCACCTAC,0.0786
5,CCAAACGG,0.0658
6,CTGAGTCC,0.0714
7,GCTAGAAA,0.0744
8,AGAACATG,0.0823
9,GAACGTCC,0.0682
10,ACCCCTGA,0.087
11,GGATCAAC,0.0758
12,ACCTTACT,0.0762
13,ACGACCCA,0.0801
14,GTCTACTA,0.075
15,AACAGTTC,0.0688
16,ACTCGAAT,0.0723
17,GACGTTTA,0.0757
18,TAAGCATA,0.075
19,GAACAATC,0.0751
20,CTGTCTAA,0.0729
21,AGTTAGCA,0.0755
22,CCGAAAGA,0.0675
23,ATTGGCTA,0.0713
24,ATTACGCG,0.0858
25,ACAAGTCG,0.0779

row,Sequence,binding signal (normalized occupancy)
1,AAGTACCT,0.0772
2,CGCCTCGC,0.0721
3,GCATTAAC,0.077
4,AGAATCGC,0.0713
5,GGGCCACC,0.0677
6,CAGTTGGA,0.071
7,ACGCATGG,0.136
8,AGCGAGTC,0.0635
9,AGGAACCA,0.0734
10,CATCTGCC,0.0795
11,TATAATGA,0.0792
12,CACACTCG,0.0787
13,GGTGGTTA,0.0838
14,GCCCTAGA,0.0705
15,AATGAGTA,0.077
16,ATGTATCG,0.085
17,ACGGATCG,0.0738
18,AGGCGGCA,0.0675
19,GTGAGGAA,0.0743
20,TCCCTCAA,0.0715
21,ATCCTTCC,0.0759
22,GCAGTCTA,0.071
23,GTATAGAC,0.077
24,AGAAATAT,0.0848
25,ATGCACTA,0.0886

row,Sequence,binding signal (normalized occupancy)
1,GAAAACGC,0.0738
2,ACCCACCA,0.088
3,ACACCCTA,0.0857
4,AACGTTGA,0.0764
5,GTAATGTA,0.0822
6,CCGATAAA,0.0723
7,CAGAAGTA,0.0747
8,ACGCGTCA,0.0796
9,GAAGAGAC,0.0685
10,CCGTGAAG,0.0739
11,ATAGTATG,0.0808
12,GGGACGGA,0.0735
13,CACTATTA,0.0809
14,GCCTTACC,0.0773
15,GTCTTGGA,0.0715
16,ATTGCCGC,0.0717
17,AATTATAT,0.0809
18,AGCGATGC,0.0746
19,AAATGACC,0.0764
20,ATACTGAT,0.0847
21,CTTAGTCA,0.075
22,GAAGGCTA,0.0751
23,AACAGTAA,0.0738
24,CCACCTTC,0.0757
25,CGCATACA,0.0849

row,Sequence,binding signal (normalized occupancy)
1,TGTGAAAA,0.0766
2,GTTAAGTA,0.0779
3,AAACCGAT,0.0702
4,CTGCCACA,0.0754
5,AGCTTCGC,0.0661
6,AAGGAACC,0.0702
7,AAGACGAA,0.0705
8,AACTACCT,0.0747
9,ACCTACAC,0.0794
10,AGACCCGC,0.0755
11,ATATTTGC,0.079
12,ACCAATCA,0.0744
13,CAGCTGGG,0.0695
14,CTCTAAAC,0.0761
15,GCGTCAAA,0.0731
16,CTCCATGC,0.0969
17,AGGCCTTC,0.067
18,CCGGTCCA,0.0731
19,ACGTAGTC,0.0749
20,ATTATTGC,0.0804
21,TCAACTAA,0.0725
22,GCGGCTAC,0.0666
23,AGACAAGG,0.0731
24,ACGACGAC,0.0761
25,CCCGAAGG,0.0689

row,Sequence,binding signal (normalized occupancy)
1,GCATCCGC,0.0757
2,CGTGAACA,0.0832
3,ATGATCTA,0.0825
4,ATCCATTC,0.079
5,GATTCGAA,0.0723
6,AATGTCAT,0.0821
7,CCCCCGAA,0.0819
8,CCTACCGA,0.0788
9,AAATGCCA,0.0768
10,AGCCGCAG,0.0658
11,GAGGCAAA,0.0738
12,GACTGTTA,0.0767
13,AGTGTACA,0.0789
14,AACCGCGG,0.0664
15,CAGGTCTC,0.0718
16,GCACTTAC,0.0761
17,AACGGGCA,0.0704
18,ACCGACCG,0.0698
19,TATAAACA,0.0776
